# Positions count from the first letter of the chain named. The list shows a part of the results.
# T1: RBFOX1 RRM (Homo sapiens, UniProt Q9NWB1 109-208)
# T1 sequence: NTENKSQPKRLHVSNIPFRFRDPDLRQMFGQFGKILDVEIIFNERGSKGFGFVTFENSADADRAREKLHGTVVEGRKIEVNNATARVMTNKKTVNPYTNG
# B1: AGGUAUC (DNA:RNA)
# RNA: GGGAGACCGGAAUUCAGAUUGUCCAGGUAUCUUAAAUCCCGUCGUAGCCACCA
# DNA 1: CAATCTGAATTCCGGTCTCCC
# DNA 2: TGGTGGCTACGACGGGATT
# B2: ACUCUCG (DNA:RNA)
# RNA: B1 RNA with G26C, G27U, U28C, A29U, U30C, C31G
# DNA 1: CAATCTGAATTCCGGTCTCCC
# DNA 2: TGGTGGCTACGACGGGATT
# B3: AAGCGAU (DNA:RNA)
# RNA: B1 RNA with G26A, U28C, A29G, U30A, C31U
# DNA 1: CAATCTGAATTCCGGTCTCCC
# DNA 2: TGGTGGCTACGACGGGATT
# B4: UGAAGCA (DNA:RNA)
# RNA: B1 RNA with A25U, G27A, U28A, A29G, U30C, C31A
# DNA 1: CAATCTGAATTCCGGTCTCCC
# DNA 2: TGGTGGCTACGACGGGATT
# B5: GGAGUGG (DNA:RNA)
# RNA: B1 RNA with A25G, G27A, U28G, A29U, U30G, C31G
# DNA 1: CAATCTGAATTCCGGTCTCCC
# DNA 2: TGGTGGCTACGACGGGATT
# B6: UCCAAGC (DNA:RNA)
# RNA: B1 RNA with A25U, G26C, G27C, U28A, U30G
# DNA 1: CAATCTGAATTCCGGTCTCCC
# DNA 2: TGGTGGCTACGACGGGATT
# B7: UGUGAGG (DNA:RNA)
# RNA: B1 RNA with A25U, G27U, U28G, U30G, C31G
# DNA 1: CAATCTGAATTCCGGTCTCCC
# DNA 2: TGGTGGCTACGACGGGATT
# B8: GUAGCAC (DNA:RNA)
# RNA: B1 RNA with A25G, G26U, G27A, U28G, A29C, U30A
# DNA 1: CAATCTGAATTCCGGTCTCCC
# DNA 2: TGGTGGCTACGACGGGATT
# B9: UUCUCGA (DNA:RNA)
# RNA: B1 RNA with A25U, G26U, G27C, A29C, U30G, C31A
# DNA 1: CAATCTGAATTCCGGTCTCCC
# DNA 2: TGGTGGCTACGACGGGATT
# B10: AUAUAGA (DNA:RNA)
# RNA: B1 RNA with G26U, G27A, U30G, C31A
# DNA 1: CAATCTGAATTCCGGTCTCCC
# DNA 2: TGGTGGCTACGACGGGATT
# B11: ACCGGUG (DNA:RNA)
# RNA: B1 RNA with G26C, G27C, U28G, A29G, C31G
# DNA 1: CAATCTGAATTCCGGTCTCCC
# DNA 2: TGGTGGCTACGACGGGATT
# B12: CACUGAG (DNA:RNA)
# RNA: B1 RNA with A25C, G26A, G27C, A29G, U30A, C31G
# DNA 1: CAATCTGAATTCCGGTCTCCC
# DNA 2: TGGTGGCTACGACGGGATT
# B13: CUCCCUG (DNA:RNA)
# RNA: B1 RNA with A25C, G26U, G27C, U28C, A29C, C31G
# DNA 1: CAATCTGAATTCCGGTCTCCC
# DNA 2: TGGTGGCTACGACGGGATT
# B14: AGGGGGG (DNA:RNA)
# RNA: B1 RNA with U28G, A29G, U30G, C31G
# DNA 1: CAATCTGAATTCCGGTCTCCC
# DNA 2: TGGTGGCTACGACGGGATT
# B15: CGGGCCG (DNA:RNA)
# RNA: B1 RNA with A25C, U28G, A29C, U30C, C31G
# DNA 1: CAATCTGAATTCCGGTCTCCC
# DNA 2: TGGTGGCTACGACGGGATT
# B16: CAAGGGU (DNA:RNA)
# RNA: GGGAGACCGGAAUUCAGAUUGUCCCAAGGGUUUAAAUCCCGUCGUAGCCACCA
# DNA 1: CAATCTGAATTCCGGTCTCCC
# DNA 2: TGGTGGCTACGACGGGATT
# B17: ACCUGAA (DNA:RNA)
# RNA: B1 RNA with G26C, G27C, A29G, U30A, C31A
# DNA 1: CAATCTGAATTCCGGTCTCCC
# DNA 2: TGGTGGCTACGACGGGATT
# B18: ACCCGAU (DNA:RNA)
# RNA: B16 RNA with C25A, A26C, A27C, G28C, G30A
# DNA 1: CAATCTGAATTCCGGTCTCCC
# DNA 2: TGGTGGCTACGACGGGATT
# B19: GUCAGAU (DNA:RNA)
# RNA: B16 RNA with C25G, A26U, A27C, G28A, G30A
# DNA 1: CAATCTGAATTCCGGTCTCCC
# DNA 2: TGGTGGCTACGACGGGATT
# B20: UACUGCC (DNA:RNA)
# RNA: B1 RNA with A25U, G26A, G27C, A29G, U30C
# DNA 1: CAATCTGAATTCCGGTCTCCC
# DNA 2: TGGTGGCTACGACGGGATT
# B21: AUAGGCG (DNA:RNA)
# RNA: B16 RNA with C25A, A26U, G30C, U31G
# DNA 1: CAATCTGAATTCCGGTCTCCC
# DNA 2: TGGTGGCTACGACGGGATT
# B22: CCCGAGG (DNA:RNA)
# RNA: B16 RNA with A26C, A27C, G29A, U31G
# DNA 1: CAATCTGAATTCCGGTCTCCC
# DNA 2: TGGTGGCTACGACGGGATT
# B23: GCUAAGA (DNA:RNA)
# RNA: B1 RNA with A25G, G26C, G27U, U28A, U30G, C31A
# DNA 1: CAATCTGAATTCCGGTCTCCC
# DNA 2: TGGTGGCTACGACGGGATT
# B24: UCCGCUC (DNA:RNA)
# RNA: B1 RNA with A25U, G26C, G27C, U28G, A29C
# DNA 1: CAATCTGAATTCCGGTCTCCC
# DNA 2: TGGTGGCTACGACGGGATT
# B25: GUGAGAC (DNA:RNA)
# RNA: B1 RNA with A25G, G26U, U28A, A29G, U30A
# DNA 1: CAATCTGAATTCCGGTCTCCC
# DNA 2: TGGTGGCTACGACGGGATT
# B26: AAAAAGC (DNA:RNA)
# RNA: B1 RNA with G26A, G27A, U28A, U30G
# DNA 1: CAATCTGAATTCCGGTCTCCC
# DNA 2: TGGTGGCTACGACGGGATT
# B27: ACUUCUG (DNA:RNA)
# RNA: B1 RNA with G26C, G27U, A29C, C31G
# DNA 1: CAATCTGAATTCCGGTCTCCC
# DNA 2: TGGTGGCTACGACGGGATT
# B28: UAUUUCA (DNA:RNA)
# RNA: B1 RNA with A25U, G26A, G27U, A29U, U30C, C31A
# DNA 1: CAATCTGAATTCCGGTCTCCC
# DNA 2: TGGTGGCTACGACGGGATT
# B29: AUAGUAC (DNA:RNA)
# RNA: B1 RNA with G26U, G27A, U28G, A29U, U30A
# DNA 1: CAATCTGAATTCCGGTCTCCC
# DNA 2: TGGTGGCTACGACGGGATT
# B30: CUAAAGG (DNA:RNA)
# RNA: B16 RNA with A26U, G28A, G29A, U31G
# DNA 1: CAATCTGAATTCCGGTCTCCC
# DNA 2: TGGTGGCTACGACGGGATT
# B31: CGAUUCA (DNA:RNA)
# RNA: B1 RNA with A25C, G27A, A29U, U30C, C31A
# DNA 1: CAATCTGAATTCCGGTCTCCC
# DNA 2: TGGTGGCTACGACGGGATT
# Molecular target: T1, RBFOX1 RRM
# Test: EMSA; HiTS-Eq, 1 nM pool, 10 min; buffer printed only for the single-RNA assays: 10 mM Tris pH 7.5, 150 mM NaCl, 3.4 mM EDTA, 0.001% NP-40, 30 C
# Conditions: tags: His6 N-terminal (pET28a); label: 5' 32P
# Outline: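 Purified RbFox RRM (wild type or mutant) was equilibrated for 10 min in 50 µL with 1 nM of a 5′-radiolabelled pool of RNA with 7 randomized nucleotides, its flanks annealed to DNA oligonucleotides, across increasing protein concentrations. Free RNA was separated by 8% native PAGE, excised, reverse-transcribed, PCR-barcoded and sequenced on an Illumina HiSeq 2500. Relative association constants came from read-count changes of each variant against the control reaction, normalised to the cognate motif.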
row,Binder,binding signal
1,B1,0.0104 KA relative to UGCAUGU
2,B2,0.00571 KA relative to UGCAUGU
3,B3,0.00378 KA relative to UGCAUGU
4,B4,0.0172 KA relative to UGCAUGU
5,B5,0.0151 KA relative to UGCAUGU
6,B6,0.0037 KA relative to UGCAUGU
7,B7,0.0123 KA relative to UGCAUGU
8,B8,0.0131 KA relative to UGCAUGU
9,B9,0.0124 KA relative to UGCAUGU
10,B10,0.00586 KA relative to UGCAUGU
11,B11,0.0128 KA relative to UGCAUGU
12,B12,0.00996 KA relative to UGCAUGU
13,B13,0.00686 KA relative to UGCAUGU
14,B14,0.0198 KA relative to UGCAUGU
15,B15,0.0351 KA relative to UGCAUGU
16,B16,0.00279 KA relative to UGCAUGU

row,Binder,binding signal
1,B17,0.00507 KA relative to UGCAUGU
2,B18,0.00366 KA relative to UGCAUGU
3,B19,0.0106 KA relative to UGCAUGU
4,B20,0.0127 KA relative to UGCAUGU
5,B21,0.01 KA relative to UGCAUGU
6,B22,0.0116 KA relative to UGCAUGU
7,B23,0.0145 KA relative to UGCAUGU
8,B24,0.0113 KA relative to UGCAUGU
9,B25,0.00961 KA relative to UGCAUGU
10,B26,0.0016 KA relative to UGCAUGU
11,B27,0.00885 KA relative to UGCAUGU
12,B28,0.00937 KA relative to UGCAUGU
13,B29,0.00342 KA relative to UGCAUGU
14,B30,0.00771 KA relative to UGCAUGU
15,B31,0.00877 KA relative to UGCAUGU
